Assay results as given in PubChem BioAssay AID1963576 (National Center for Advancing Translational Sciences (NCATS), 2024).
Among all 46,000 compounds or so, about 60 (0.1%) were called active. About 3% were inconclusive and are not listed. Calls follow the shape of the dose curve; as a rule, active = well fitted inhibition curve with a large enough effect; inconclusive = small, poorly fitted or top-dose-only effect; inactive = no such curve, though single readings can be large or run the other way. The list shows a part of the results.

Assay: Primary qHTS assay for Inhibitors of ovarian cancer metastasis using an organotypic tumor microenvironment (TME) model. Also: nearly all actives have a fitted effect of over 65% in size.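 As to activity change, negative = inhibition: plate controls were DMSO wells for no effect and tomatine positive control wells for full effect.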
Details: SKOV3ip1-GFP adhesion/invasion on 3D omental model, fluorescence; series mostly up to 45.8 µM; activity change, negative = inhibition: at the top concentration
Outline: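 Primary human omental fibroblast/mesothelial 3D culture pre-formed 48 h. SKOV3ip1-GFP cells added with compounds (0.36-46 umol/L), incubated 2 h RT/16 h 37 C, fixed; GFP cells quantified at 488/509 nm.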

Activity change, negative = inhibition, inactive:
CCOc1ccc(NC(=O)NCCn2nnc3cc(S(=O)(=O)N(C)C)ccc32)cc1 -13.9%
O=C(NCC1CCCO1)c1c[nH]c2ccc(S(=O)(=O)Nc3ccc(F)cc3F)cc2c1=O (centres undefined) 0.323%
CCN(C(=O)C1CCCN(c2ncnc3onc(-c4ccc(F)cc4)c23)C1)c1ccccc1 (centres undefined) -5.58%
O=C(c1cccc(F)c1)N1CCC(c2c[nH]c3ccccc23)(c2c[nH]c3ccccc23)CC1 13.9%
CCOc1ccc(C(CC(=O)Nc2cc(C)c(Cl)cc2OC)N2Cc3ccccc3C2=O)cc1OC (centres undefined) 26.4%
Cc1ccc(CNC(=O)c2sc3nc(-c4ccc(F)cc4)ccc3c2N)cc1 7.13%
COc1cccc(CNS(=O)(=O)c2ccc(N3CCCCS3(=O)=O)cc2)c1 -0.902%
COc1cccc(CNC(=O)CCCn2nc(C)n3c(cc4sccc43)c2=O)c1 -1.52%
COc1ccc(C2CC(=O)c3c([nH]c(C(=O)OC4CCCCCC4)c3C)C2)cc1OC (centres undefined) 1.76%
COc1ccc(-n2nnc(-c3nc(-c4ccccc4C)no3)c2N)cc1Cl 1.51%
COc1ccc(-c2cc(C(=O)N3CCN(c4ccc(F)cc4)CC3)no2)cc1OC -6.11%
COC(=O)c1ccccc1NC(=O)CCc1c(C)nc2c(c(C)nn2-c2ccccc2)c1C 2.44%
COc1ccc(Cn2ccc3nc(C)c(C(=O)NCc4ccc(OC)cc4OC)cc3c2=O)cc1 -1.24%
COc1ccc(NC(=O)C(C)n2c(C)c3cnn(-c4ccccc4)c(=O)c3c2C)cc1Cl (centres undefined) 27.9%
O=C(Cn1ncc2c([nH]c3ccccc32)c1=O)NCc1cccc(Cl)c1 -0.148%
CCOC(=O)c1cnc2c(C)cc(Cl)cc2c1NCCc1ccc(OC)c(OC)c1 -0.0812%
Cc1cccc(OCC(=O)N(Cc2ccc(C(C)C)cc2)Cc2ccco2)c1C -7.47%
O=C(Nc1nnc(S(=O)(=O)N2CCCC2)s1)c1ccccc1F -2.43%
CCN(C(=O)c1nn(-c2ccc(C)cc2)c(=O)c2c1c1ccccc1n2C)c1ccc(F)cc1 0.796%
O=C(NCCc1ccccc1)c1ccc(CSc2nc3ccncc3n2Cc2ccccc2F)cc1 -20.3%
CC(C)COc1ccc(-c2nonc2NC(=O)c2ccc(F)cc2)cc1 -17.3%
CCc1cnn2c(NCc3ccc[n+]([O-])c3)cc(N3CCCC[C@@H]3CCO)nc12 -2.2%
CCOc1ccc(NC(=O)Cc2ccc(-n3c(C)nc4cccnc43)cc2)cc1 -22%
O=C(CC1N=C2c3ccccc3N=C(SCc3ccccc3Cl)N2C1=O)NCc1cccs1 (centres undefined) -14%
COc1ccc(NC(=O)C(=O)NCC(c2cccnc2)N2CCc3ccccc3C2)cc1 (centres undefined) 9.33%
COc1ccc(NC(=O)C(NC(=O)/C=C\c2ccc3c(c2)OCO3)c2ccc(OC)cc2)cc1 (centres undefined) 7.13%
O=C(Nc1cc(Cl)ccc1Cl)c1cc(S(=O)(=O)N2CCCc3ccccc32)ccc1F -13.2%
Cc1ccc(NC(=O)CN2C(=O)c3ccccc3Sc3ccc(C(=O)N4CCCC4)cc32)cc1 15.5%
Cc1ccc(-n2nc(C(=O)Nc3cccc(C#N)c3)c3c4ccccc4n(C)c3c2=O)cc1 -9.3%
CC1=C(C(=O)Nc2cccnc2)C(c2ccc(Cl)cc2)n2nc(SCc3ccccc3)nc2N1 (centres undefined) 0.919%
COC(=O)c1c(NC(=O)COc2c(C)ccc(C)c2C)sc2c1CCC(C)C2 (centres undefined) -7.14%
Cc1cc2n(n1)CCC(=O)N2Cc1ccc(C(=O)Nc2ccc(Br)c(C)c2)cc1 -0.955%
O=C(NCCc1ccc(Cl)cc1)c1nc(-c2cccc(F)c2)n2c1CCCCC2 2.3%
O=C(Cn1ncc2ccsc2c1=O)N1CCN(c2ccccc2)CC1 3.64%
CCCSc1nc2c(c(=O)[nH]1)C(c1ccc(F)cc1F)CC(=O)N2 (centres undefined) 2.73%
CCN(CC)c1cc2c(cc1F)c(=O)c(S(=O)(=O)c1ccc(C)cc1)cn2Cc1ccc(F)cc1 -11.3%
CCOc1ccccc1Nc1sc(C(=O)c2ccc(Cl)cc2)c(N)c1C(=O)NCCc1ccccc1 1.51%
CCCc1nnc(NC(=O)Cc2coc3ccc(C)cc23)s1 4.78%
O=C(Cn1c(=O)n(CCc2ccccc2)c(=O)c2c3c(sc21)CCCC3)Nc1ccc(F)c(F)c1 -9.23%
Brc1ccc(CN2CCc3nc(N4CCN(c5ncccn5)CC4)ncc3C2)cc1 1.7%
CC(C)c1ccccc1Oc1c(C(F)(F)F)oc2c(CN3CCN(C)CC3)c(O)ccc2c1=O -1.4%
COc1ccc(NC(=O)CSc2nc3c(c(=O)[nH]2)CCC3)cc1 -2.23%
CCOC(=O)c1c(C)c(C(=O)NCc2ccc(Cl)cc2)c(C)n1CC 0.266%
COc1ccc(NCc2cc3ccc(OC)cc3n(CC(=O)Nc3cccc(OC)c3)c2=O)cc1 -6.26%
COc1ccc(OC)c(S(=O)(=O)Nc2cccc(-c3ccc(N4CCCCCC4)nn3)c2)c1 3.78%
CCOc1ccc(-c2nc(CNC(=O)Nc3ccccc3)c(C)o2)cc1 -18.8%
COc1ccccc1N1CCN(C(=O)c2cc3c(=O)oc4ccc(C)cc4c3s2)CC1 -7.64%
Cc1ccc(CNC(=O)c2cn(C)c3ccc(S(=O)(=O)N4CCOCC4)cc3c2=O)cc1 1.56%
COc1cc(NC(=O)c2nn(-c3ccc(F)cc3)c(=O)n(C)c2=O)cc(OC)c1OC 9.83%
O=c1cc(CN2CCN(S(=O)(=O)c3ccccc3)CC2)nc2sc(-c3ccccc3Cl)nn12 -3.35%
Cc1ccc(C)c(NC(=O)c2nnn(CC(=O)Nc3cccc(C)c3C)c2N)c1 17.9%
CC(=O)c1ccc(NC(=O)COc2ccccc2-c2nc(-c3ccccc3)no2)cc1 11.7%
COCc1cc(C)nc2sc3c(c12)NC(c1ccccc1C(=O)O)N(c1ccc(OC)cc1)C3=O (centres undefined) 5.78%
CC(Oc1ccccc1)C(=O)N1CCN(Cc2cc(=O)n3nc(-c4ccccc4Cl)sc3n2)CC1 (centres undefined) -2%
CCOC(=O)c1c(C)[nH]c(C)c1S(=O)(=O)NCC(=O)N1CCN(c2cc(Cl)ccc2C)CC1 3.28%
CCc1ccc(C(=O)c2cn(CC(=O)Nc3ccc4c(c3)OCCO4)c3ccc(C)cc3c2=O)cc1 -4%
O=C(CS(=O)(=O)c1nc(-c2ccc(Cl)cc2)cn1-c1ccccc1)Nc1ccc(F)cc1F -19%
Cc1ccc(-n2c(SCCC(C)C)nc3sc4c(c3c2=O)CC(C)(C)OC4)cc1 -2.7%
CCOc1ccc(CNC(=O)C2CCN(C(=O)c3sccc3-n3cccc3)CC2)cc1 -0.634%
COc1ccc(-c2cc(C(C)=O)c(C)n2CCC(=O)NC2CCCCC2)cc1 6.02%
COc1ccc(/C=C/c2onc(C)c2S(=O)(=O)N2CCC(C(=O)N3CCCCC3)CC2)cc1 1.69%
COc1ccc(OCCSc2nc3ccccc3n2CC(=O)N2CCOCC2)cc1 4.46%
COc1ccc(NC(=O)CCCc2nnc3n(CCC(C)C)c(=O)c4sccc4n23)cc1Cl -0.807%
COCCNc1ncnc2onc(-c3ccc(F)cc3)c12 -11.5%
COc1ccccc1CNC(=O)c1cc2cc(C)ccc2n1C 6.35%
COc1cc(CNc2ccc3[nH]c(=O)[nH]c3c2)cc(Br)c1OCc1ccc(F)cc1 -7.3%
CN(C)c1cccc(C(=O)N2CCC(c3ccncc3)CC2)c1 11.9%
CCOc1ccc(CNC(=O)CN2C(=O)C3CCCCN3c3ccc(C(=O)N4CCCC4)cc32)cc1 (centres undefined) -22.2%
Cc1ccc(S(=O)(=O)c2nc(S(=O)(=O)c3ccc(C)cc3)c(NC(C)C)s2)cc1 0.243%
CCOc1ccc(CNC(=O)c2cnc3sc(N4CCCCCC4)nn3c2=O)cc1OC -1.64%

outcome, inactive:
COc1ccc(C(=O)Nc2nnc(S(=O)(=O)N3CCC(C)CC3)s2)cc1OC
CCOC(=O)C1=C(CN2CCCCC2)NC(=O)NC1c1ccc(C)cc1 (centres undefined)
CC1CCCCN1Cc1c(O)ccc2c(=O)c(-c3ccccc3)coc12 (centres undefined)
CCOC(=O)c1cc(-c2ccc(F)cc2)n(CCC(=O)NCc2ccccc2OC)c1C
Cc1ccc(N2CC(NC(=O)c3ccco3)CC2=O)cc1C (centres undefined)
CCOC(=O)C1CCCN(Cc2cn3c(-c4ccc(Br)cc4)nnc3s2)C1 (centres undefined)
CN(C(=O)c1ccc2c(c1)N(Cc1ccccc1F)C(=O)c1ccccc1S2(=O)=O)C1CCCCC1
CCCN1CCN(c2ncnc3sc(C(=O)Nc4cccc(Cl)c4C)c(C)c23)CC1
O=S(=O)(Nc1cccc(-c2ccc(N3CCOCC3)nn2)c1)c1ccccc1C(F)(F)F
CCOc1ccc(NC(=O)[C@H](Cc2ccccc2)N2Cc3ccccc3C2=O)cc1
Cn1c(-c2ccc(S(=O)(=O)N3CCCC3)cc2)csc1=Nc1ccc(Cl)c(Cl)c1
CCC1CCc2nc3sc(C(=O)Nc4ccc(F)c(F)c4)c(N)c3cc2C1 (centres undefined)
Cc1ccccc1NC(=O)CSc1nc2ccccc2c2nc(CCn3c(C)nc4ccccc43)nn12
Cc1cc(C)c(/C=C/c2onc(C)c2S(=O)(=O)N2CCC(C(=O)Nc3ccc(Cl)cc3C)CC2)c(C)c1
O=C(COCc1cc(-c2cccs2)on1)NCc1cccc(Cl)c1
CCn1c(C(=O)N2CCC(C(=O)NCCCOC)CC2)cc2sccc21
Cc1cn(S(=O)(=O)c2ccc(F)c(Cl)c2)cn1
Cc1ccccc1NC(=O)c1c(NC(=O)C(F)(F)F)sc2c1CCCCC2
O=c1c2c3c(sc2n(Cc2cc(=O)n4ccccc4n2)c(=O)n1-c1ccccc1)CCC3
O=C(CCSCc1ccccc1Cl)N1CCN(c2ccc(F)cc2)CC1
Cc1ccc(NC(=O)C(Cc2ccccc2)NS(=O)(=O)c2cccs2)cc1Cl (centres undefined)
Cc1ccc(-c2noc(CSc3nnc(C)n3-c3ccc(C)cc3)n2)cc1
COc1ccccc1CNC(=O)CN1C(=O)c2cccnc2Oc2ccccc21
Cc1ccc(C)c(NC(=O)Cn2c(=O)n(Cc3ccc4c(c3)OCO4)c(=O)c3ccc(C(=O)NC4CCCCC4)cc32)c1
